This is an account of results in the supplement of paper PMC11417369.

This is one part of the list.

For the experiment, the system named is PfHDP1 homeodomain (GST-tagged). Kind of experiment: gcPBM binding intensity (ln(normalized median fluorescence intensity)); higher = stronger DNA binding. The gist of the method:
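GST-tagged P. falciparum DNA-binding domains produced in E. coli were incubated for 1 h on an Agilent 4 × 180k array of primer-extended double-stranded 36-bp intergenic genomic probes with negative controls. Binding intensity is the highest Masliner-normalised natural-log median intensity across replicate spots of either probe orientation, with bound protein detected by Alexa488 anti-GST antibody at 488 nm.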
Regarding “TATTTAAATGGATGCACACATGCATTAAATAAAATA [CACACA_site3433]”, the “gcPBM binding intensity (ln)” value was found to be 8.59.
Next, “TATCATCATGTATGTACACACATACAGATATTATGT [CACACA_site4888]”: 6.38.
With “AAATACAAAATTGTTACACACATATTAATTATGACA [CACACA_site476]” the figure was 6.25; with “ATATAAATATAGTGTGCACACACATAATATATATAT [CACACA_site8713]”, 10.7; with “TATATTTTAAAATTATGTACATATATAGATAAATGT [XGTACX_site1349]”, 6.64.
Regarding “AAAATAAATTGTGAAGGTACACAAATTATTATGTGG [XGTACX_site4196]”, the “gcPBM binding intensity (ln)” value worked out at 6.38.
With “ATATATATATATAATACACACATCATAAAATATGTA [CACACA_site2518]” the figure was 8.86; with “AAGCCTTAAAAGGAAAGTACGTATATATATATATAT [XGTACX_site8559]”, 9.48; with “ATATTTAATTAAAAGAGTACTTAAATAAAATAAATG [XGTACX_site2149]”, 6.33.
Next, “ATGAAACATGTATATTGTACTCTGGATCAATTTAAT [XGTACX_site6413]”: 6.32; “AATAAATAAATACATCTCAGTATATAAACAAACAAA [CACACA_negctrl_site1604]”: 6.75.
For “AAATTTATTATATATACATGCAATCATAAATAATGT [TGCATGCA_site539]”, the “gcPBM binding intensity (ln)” value was determined as 6.27.
Next, “AAGAAAATAGAAAATACACACAGCAAACAGAGGAAT [CACACA_site3785]”: 7; “AATGTATATATATATATATATATATATATTTATTTA [CACACA_negctrl_site113]”: 7.05.
Next, “ATATATATATATTTATGTACATATATTTTTTTTTTT [XGTACX_site8558]”: 8.94; “AAGAAAAAAAAAAATATATATACATATATATATATA [TGCATGCA_negctrl_site485]”: 8.91; “AATACTTATTATGAAACACACACCAAAACTACATAA [CACACA_site270]”: 6.95.
For “AAAAAAAAAAAACACACACACACACTAGTATATAAA [CACACA_site4783]”, the “gcPBM binding intensity (ln)” value was found to be 6.64.
Next, “GGATATAACAAACACACACACACATATATATATATT [CACACA_site4141]”: 6.93; “AATACATATAATACAACACACAAGTAATATAAACCT [CACACA_site3597]”: 6.95; “TTTAAATGAAAAAAAGGTACACAATATTATTCTTAT [XGTACX_site8612]”: 6.47.
As for “ATCCTAATATTGAACTGTACCTTATATGTTATTATA [XGTACX_site1014]”, the “gcPBM binding intensity (ln)” value stood at 6.75.
With “GGTTATATATTTTTTGCACACCAAAAAAGAGAATAT [CACACA_site2731]” the figure was 10.1.
With “TATATATATATATATACACACATATATACATATATA [CACACA_site4043]” the figure was 9.49; with “TATACATACACATACACACATACACCCATACACATA [CACACA_site1746]”, 7.33; with “TTCTTCTAATCCTTTTATCTCATTAAAAAAATATAA [CACACA_negctrl_site12]”, 6.52.
With “AATAATAAATCAAACTGTACATATATTTTCAATCTA [XGTACX_site3344]” the figure was 6.18.
Consider “TGTAGTCTGGAGAAAAGTACACAGTATCCGGTAACT [XGTACX_site4934]”, for which the “gcPBM binding intensity (ln)” value amounted to 6.18.
With “TTTTTTTTTTTGTTCACACATATATATATATATATA [CACACA_site5376]” the figure was 9.44; with “TTATAAATAAAAAATACACACATATATTTATTTATA [CACACA_site6242]”, 6.39.
Next, “ATAATATATGAAAGTGGTACACAAAGGAAAATAAAA [XGTACX_site333]”: 7.61.
In the case of “TTTATATTAATTGATGTGCACTGAAATATTTGTCCA [GTGCAC_site9655]”, the “gcPBM binding intensity (ln)” value is 9.08.
Next, “ACCCTATAGGTAACTACACACCGCATATTGTTTACT [CACACA_site7436]”: 6.81.
With “TTAACTATGAATACATGTACATGAAAATATTTCAAT [XGTACX_site1069]” the figure was 6.59; with “AAAATTAAACAAAGTTGTACAAAATAATAATAAAAG [XGTACX_site7515]”, 7.05; with “AAATTAATAAAAAATGGTACACAAAATGGATGTATA [XGTACX_site1561]”, 6.65.
With “GGCAAATTTATTATACCCACATACATACATACATAC [XGTACX_negctrl_site186]” the figure was 7.62.
For the sequence “CCATGTCACAATTTTTCACACACAAAATTTATATAC [CACACA_site8628]”, the “gcPBM binding intensity (ln)” value came to 6.9.
With “ATATACACACATAAGTGTACTTATATTTCATATATA [XGTACX_site8646]” the figure was 6.68; with “TAATTAACAAACTATAGTACACAAAATACTTCATAT [XGTACX_site6375]”, 6.35; with “AAAATAAAATAAAACACAAAAAAATAAAACAAAATA [CACACA_negctrl_site16]”, 6.75.
Next, “TCTATGCGTTTTAATAGTACATATAAAATTTATACA [XGTACX_site6986]”: 6.37; “AAATATGTTTATATATGTACTTATAATTCAAAATAT [XGTACX_site2167]”: 6.12.
With “TATATATCCATGTGTACACACAAAAAAAAATAAAGT [CACACA_site7107]” the figure was 7.52.
